Test results reported in the supplement of paper PMC9446081.
The whole screen tested about 39,000 compounds, of which about 220 (0.56%) showed activity. The list shows a part of the results.

test system: Escherichia coli K-12 BW25113; experiment: relative growth (OD600 normalised to plate interquartile mean) (fraction); higher = less growth inhibition, active = 0.2 or less; settings: 50 µM; LB; incubation time: overnight (16-24 h)
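Note: static incubation at 37 °C against the wild-type strain, values averaged over two biological replicates.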

Structure (SMILES) | relative growth
Cc1noc(C)c1NC(=O)Nc1ccc2c(c1)C(=O)N([C@H](C)CO)C[C@H](C)[C@@H](CN(C)Cc1ccc(C(=O)Nc3ccccc3N)cc1)O2 | inactive: 0.99
CCCNC(=O)Nc1ccc2c(c1)OC[C@H](C)N(C(=O)C1CCOCC1)C[C@@H](C)[C@@H](OC)CN(C)C2=O | inactive: 1.01
C[C@H](CO)N1C[C@H](C)[C@@H](CN(C)CC2CC2)Oc2ccc(NS(=O)(=O)c3ccc(F)cc3)cc2CC1=O | inactive: 0.988
N=C(NCCC[C@H](N)C(=O)O)N[C@@H](CCC(=O)O)C(=O)O | inactive: 1
Cc1ccc(S(=O)(=O)Nc2ccc3c(c2)C(=O)N(C)[C@@H]2CC[C@H](CC(=O)NCCc4ccncc4)O[C@H]2CO3)cc1 | inactive: 0.992
COc1ccc(CN(C)C[C@H]2OCCCC[C@@H](C)Oc3ccc(NS(=O)(=O)c4c(C)noc4C)cc3C(=O)N([C@H](C)CO)C[C@@H]2C)cc1 | inactive: 1.01
COCC#Cc1ccc2c(c1)O[C@H](CN(C)S(=O)(=O)c1ccc(OC)cc1)[C@H](C)CN([C@H](C)CO)S2(=O)=O | inactive: 1.05
CC(C)NC(=O)Nc1ccc2c(c1)C(=O)N([C@@H](C)CO)C[C@H](C)[C@@H](CN(C)C(=O)C1CCCCC1)OCCCC[C@@H](C)O2 | inactive: 1
Cc1noc(C)c1NC(=O)N(C)C[C@@H]1OCCCC[C@@H](C)Oc2ccc(NS(=O)(=O)c3ccc(Cl)cc3)cc2C(=O)N([C@@H](C)CO)C[C@H]1C | inactive: 1.01
CC(C)(C)[S@@](=O)N1Cc2cc(C(=O)NC3CCCCC3)nc(-c3cccc(Br)c3)c2[C@H]1CCO | inactive: 0.962
CC(C)CCC[C@@H](C)[C@H]1CC[C@@]2(C)C3=C(CC[C@]12C)[C@@]1(C)CC[C@H](OC(=O)CCl)C(C)(C)[C@@H]1CC3 | inactive: 0.911
N=C(N)NCCC[C@@H](NC(=O)CC1(CC(=O)N2CCN([C@H]3c4ccccc4NC(=O)c4ccccc43)CC2)CCCC1)C(=O)NCCn1c(=O)n(-c2ccccc2)n(-c2ccccc2)c1=O | inactive: 0.801
COc1ccc(CN(C)C[C@H]2OCCCC[C@H](C)Oc3ccc(NC(=O)Nc4ccc5c(c4)OCO5)cc3C(=O)N([C@H](C)CO)C[C@H]2C)cc1 | inactive: 0.989
COCC(=O)N1C[C@@H](C)[C@H](OC)CN(C)C(=O)c2ccc(NC(=O)c3ccc(F)cc3)cc2OC[C@H]1C | inactive: 0.992
COC(=O)c1cc(S(C)(=O)=O)ccc1OC | inactive: 0.977
C[C@@H]1CCCCO[C@@H](CN(C)S(=O)(=O)c2ccc(Cl)cc2)[C@@H](C)CN([C@@H](C)CO)C(=O)c2cc(NC(=O)c3ccccc3)ccc2O1 | inactive: 1.02
Cc1noc(C)c1S(=O)(=O)Nc1ccc2c(c1)CC(=O)N([C@@H](C)CO)C[C@@H](C)[C@@H](CN(C)Cc1ccc(-c3ccccc3)cc1)O2 | inactive: 1.02
O=C(C[C@@H]1CC[C@@H]2[C@H](COC[C@@H](O)CN2C(=O)c2ccncc2)O1)NCc1ccc(-c2ccccc2)cc1 | inactive: 1.01
CN(C)CCCNC(=O)C[C@@H]1C=C[C@H](NC(=O)Cc2cccnc2)[C@H](CO)O1 | inactive: 0.874
CC(C)NC(=O)N(C)C[C@@H]1Oc2ccc(NS(=O)(=O)c3cn(C)cn3)cc2C(=O)N([C@@H](C)CO)C[C@@H]1C | inactive: 0.996

Structure (SMILES) | relative growth
C[C@H](CO)N1C[C@H](C)[C@@H](CN(C)C(=O)c2ccc(F)cc2)OCc2ccccc2-c2c(n(C)c3ccccc23)C1=O | inactive: 0.984
Cc1ccc(S(=O)(=O)Nc2ccc3c(c2)CC(=O)N([C@@H](C)CO)C[C@@H](C)[C@@H](CN(C)C(=O)Nc2cccc4ccccc24)O3)cc1 | inactive: 1
Cc1ccc(S(=O)(=O)N(C)C[C@H]2Oc3c(NC(=O)C4CC4)cccc3C(=O)N([C@@H](C)CO)C[C@@H]2C)cc1 | inactive: 0.983
Cc1noc(C)c1NC(=O)Nc1ccc2c(c1)CC(=O)N([C@@H](C)CO)C[C@H](C)[C@H](CN(C)CC1CC1)O2 | inactive: 0.981
Cc1ccc(S[C@]2(C(=O)NCCN3CCOCC3)CC(=O)N(Cc3ccccc3Cl)[C@@H]2c2ccc(CO)cc2I)cc1 | inactive: 0.992
CCCNC(=O)Nc1ccc2c(c1)OC[C@@H](C)N(C(=O)C1CCOCC1)C[C@@H](C)[C@@H](OC)CN(C)C2=O | inactive: 0.996
COc1cccc(NC(=O)N2C[C@H](O)COC[C@@H]3O[C@@H](CC(=O)NCCCN4CCOCC4)CC[C@H]32)c1 | inactive: 0.985
O=C(C[C@H]1CC[C@@H]2[C@H](COC[C@H](O)CN2C(=O)c2ccc3c(c2)OCO3)O1)NCCN1CCCC1 | inactive: 0.989
Cc1noc(C)c1S(=O)(=O)N(C)C[C@@H]1Oc2c(NS(=O)(=O)c3cn(C)cn3)cccc2C(=O)N([C@H](C)CO)C[C@H]1C | inactive: 0.996
C[C@H](CO)N1C[C@H](C)[C@H](CN(C)Cc2ccc(C(F)(F)F)cc2)OCCCC[C@H](C)Oc2ccc(NC(=O)C3CCCCC3)cc2C1=O | inactive: 1.01
N[C@@H](Cn1ccnc1)c1ccccc1 | inactive: 1.03
C[C@@H]1CCCCO[C@@H](CN(C)Cc2ccc(C(=O)O)cc2)[C@@H](C)CN([C@H](C)CO)C(=O)c2cc(NC(=O)C3CCCCC3)ccc2O1 | inactive: 1.02
C[C@@H]1CN([C@@H](C)CO)C(=O)c2cc(NC(=O)Nc3ccccc3)ccc2O[C@H]1CN(C)Cc1ccc(-c2ccccc2)cc1 | inactive: 1.02
C[C@H]1CN([C@@H](C)CO)C(=O)c2cc(NC(=O)Nc3ccc(C(F)(F)F)cc3)ccc2O[C@H]1CN(C)C(=O)Nc1ccc(C(F)(F)F)cc1 | inactive: 1.02
COc1ccc(CNC(=O)C[C@@H]2CC[C@H]3[C@@H](COc4ccc(NC(=O)C(C)C)cc4C(=O)N3C)O2)cc1 | inactive: 0.99
COc1ccc(CN(C)C[C@@H]2OCCCC[C@H](C)Oc3ccc(NC(=O)Nc4ccc(F)cc4)cc3C(=O)N([C@@H](C)CO)C[C@H]2C)cc1 | inactive: 1.01
C[C@@H]1CN([C@H](C)CO)C(=O)Cc2cc(NS(=O)(=O)c3ccccc3)ccc2O[C@@H]1CN(C)Cc1ccc(-c2ccccc2)cc1 | inactive: 0.998
C[C@H](CO)N1C[C@H](C)[C@H](CN(C)S(=O)(=O)c2ccc(F)cc2)OCCCC[C@H](C)Oc2ccc(NC(=O)Nc3cccc4ccccc34)cc2C1=O | inactive: 1.04
CN(C)C(=O)CN1C[C@@H]2CCN(C(=O)[C@H]3CCCO3)CC[C@H]2S1(=O)=O | inactive: 0.982
C[C@H](CO)N1C[C@H](C)[C@@H](CN(C)Cc2ccc(Cl)c(Cl)c2)OCCCC[C@H](C)Oc2ccc(NC(=O)c3ccccc3)cc2C1=O | inactive: 0.966

Structure (SMILES) | relative growth
N#CCCn1nc2c(c1N)CCC2 | inactive: 1.01
C[C@@H]1CN([C@@H](C)CO)S(=O)(=O)c2ccc(C#CCN(C)C)cc2O[C@H]1CN(C)S(C)(=O)=O | inactive: 1.01
C[C@H]1CN([C@@H](C)CO)S(=O)(=O)c2ccc(-c3cncnc3)cc2O[C@@H]1CN(C)C(=O)Cc1ccncc1 | inactive: 0.977
O=C(O)CCC(=O)NCc1cccnc1 | inactive: 1
CC(C)NC(=O)N(C)C[C@H]1Oc2cc(C#Cc3ccc(F)cc3)ccc2S(=O)(=O)N([C@@H](C)CO)C[C@@H]1C | inactive: 0.99
O=S1(=O)N[C@H](c2ccccc2)CO1 | inactive: 1.02
Cc1ccccc1OC[C@@H](O)CO | inactive: 1.01
CCC(C)CCCCC(=O)NC(CCN)C(=O)NC(C(=O)NC(CCN)C(=O)NC1CCNC(=O)C(C(C)O)NC(=O)C(CCN)NC(=O)C(CCN)NC(=O)C(CC(C)C)NC(=O)C(Cc2ccccc2)NC(=O)C(CCN)NC1=O)C(C)O.O=S(=O)(O)O (centres undefined) | active: 0.0419
C[C@@H]1CN([C@@H](C)CO)C(=O)c2cc(NC(=O)Nc3ccccc3)ccc2O[C@@H](C)CCCCO[C@H]1CN(C)S(=O)(=O)c1ccc(Cl)cc1 | inactive: 0.985
N[C@H](C(=O)O)[C@H](O)c1ccc(O)c(O)c1 | inactive: 0.984
O=C(C[C@H]1CC[C@@H]2[C@H](COC[C@H](O)CN2C(=O)Nc2cccc(Cl)c2)O1)NCc1ccccc1F | inactive: 1.02
COCCNC(=O)C[C@H]1CC[C@@H]2[C@H](COC[C@@H](O)CN2C(=O)Nc2ccccc2OC)O1 | inactive: 0.99
CCN1C(=O)C[C@@H]2[C@@H]1CCN2S(=O)(=O)c1cn(C)cn1 | inactive: 0.992
CN1C(=O)c2cc(NC(=O)Cc3cccs3)ccc2OC[C@H]2O[C@H](CC(=O)NCCc3ccncc3)CC[C@H]21 | inactive: 0.998
C[C@@H]1CN([C@H](C)CO)C(=O)c2cc(NC(=O)Nc3cccc4ccccc34)ccc2O[C@@H]1CN(C)S(=O)(=O)c1ccc(Cl)cc1 | inactive: 0.982
C[C@@H]1CN([C@@H](C)CO)S(=O)(=O)c2ccc(C#Cc3cccnc3)cc2O[C@@H]1CN(C)C(=O)CN(C)C | inactive: 0.996
COc1ccc(S(=O)(=O)N(C)C[C@@H]2Oc3ccc(NS(=O)(=O)c4ccc(C)cc4)cc3CC(=O)N([C@@H](C)CO)C[C@H]2C)cc1 | inactive: 1.01
C[C@H](CO)N1C[C@H](C)[C@H](CN(C)S(C)(=O)=O)Oc2c(NC(=O)c3cnccn3)cccc2C1=O | inactive: 0.995
C/C=C1\[C@@H](O[C@H]2O[C@@H](CO)[C@@H](O)[C@@H](O)[C@@H]2O)OC=C(C(=O)OC)[C@H]1CC(=O)OC[C@H]1[C@H](C)[C@H](OC(=O)C[C@@H]2C(C(=O)OC)=CO[C@H](O[C@H]3O[C@@H](CO)[C@@H](O)[C@@H](O)[C@@H]3O)/C2=C\C)C[C@@H]1[C@H](CO)COC(=O)C[C@@H]1C(C(=O)OC)=CO[C@@H](O[C@H]2O[C@@H](CO)[C@@H](O)[C@@H](O)[C@@H]2O)/C1=C\C | inactive: 0.9
